# Laboratory results published in article PMC9911399, “Two distinct binding modes provide the RNA-binding protein RbFox with extraordinary sequence specificity”.
# Changes are numbered by the printed parent chain; changes in the protein carry UniProt numbers. This is one part of the list.
# T1: RBFOX1 RRM RbFoxmut (Fox-RRM*) (Homo sapiens, UniProt Q9NWB1 109-208, R118D;E147R;N151S;E152T)
# T1 sequence: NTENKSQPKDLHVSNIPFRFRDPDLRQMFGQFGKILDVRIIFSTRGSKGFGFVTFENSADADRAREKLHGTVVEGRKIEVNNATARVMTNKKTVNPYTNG
# B1: CUGCCAU (DNA:RNA)
# RNA: GGGAGACCGGAAUUCAGAUUGUCCCUGCCAUUUAAAUCCCGUCGUAGCCACCA
# DNA 1: CAATCTGAATTCCGGTCTCCC
# DNA 2: TGGTGGCTACGACGGGATT
# B2: ACUAUUA (DNA:RNA)
# RNA: GGGAGACCGGAAUUCAGAUUGUCCACUAUUAUUAAAUCCCGUCGUAGCCACCA
# DNA 1: CAATCTGAATTCCGGTCTCCC
# DNA 2: TGGTGGCTACGACGGGATT
# B3: AGGGUGC (DNA:RNA)
# RNA: B2 RNA with C26G, U27G, A28G, U30G, A31C
# DNA 1: CAATCTGAATTCCGGTCTCCC
# DNA 2: TGGTGGCTACGACGGGATT
# B4: GGAGCAC (DNA:RNA)
# RNA: B1 RNA with C25G, U26G, G27A, C28G, U31C
# DNA 1: CAATCTGAATTCCGGTCTCCC
# DNA 2: TGGTGGCTACGACGGGATT
# B5: GGGGGAC (DNA:RNA)
# RNA: B1 RNA with C25G, U26G, C28G, C29G, U31C
# DNA 1: CAATCTGAATTCCGGTCTCCC
# DNA 2: TGGTGGCTACGACGGGATT
# B6: CGUGCUU (DNA:RNA)
# RNA: B1 RNA with U26G, G27U, C28G, A30U
# DNA 1: CAATCTGAATTCCGGTCTCCC
# DNA 2: TGGTGGCTACGACGGGATT
# B7: AUGCUAU (DNA:RNA)
# RNA: B1 RNA with C25A, C29U
# DNA 1: CAATCTGAATTCCGGTCTCCC
# DNA 2: TGGTGGCTACGACGGGATT
# B8: AAGGUUG (DNA:RNA)
# RNA: B2 RNA with C26A, U27G, A28G, A31G
# DNA 1: CAATCTGAATTCCGGTCTCCC
# DNA 2: TGGTGGCTACGACGGGATT
# B9: CCGGGCG (DNA:RNA)
# RNA: B1 RNA with U26C, C28G, C29G, A30C, U31G
# DNA 1: CAATCTGAATTCCGGTCTCCC
# DNA 2: TGGTGGCTACGACGGGATT
# B10: CUGACAA (DNA:RNA)
# RNA: B1 RNA with C28A, U31A
# DNA 1: CAATCTGAATTCCGGTCTCCC
# DNA 2: TGGTGGCTACGACGGGATT
# B11: UCCGUGG (DNA:RNA)
# RNA: B2 RNA with A25U, U27C, A28G, U30G, A31G
# DNA 1: CAATCTGAATTCCGGTCTCCC
# DNA 2: TGGTGGCTACGACGGGATT
# B12: CGCAACU (DNA:RNA)
# RNA: B1 RNA with U26G, G27C, C28A, C29A, A30C
# DNA 1: CAATCTGAATTCCGGTCTCCC
# DNA 2: TGGTGGCTACGACGGGATT
# B13: CCAUCCC (DNA:RNA)
# RNA: B1 RNA with U26C, G27A, C28U, A30C, U31C
# DNA 1: CAATCTGAATTCCGGTCTCCC
# DNA 2: TGGTGGCTACGACGGGATT
# B14: AUUGGCU (DNA:RNA)
# RNA: B2 RNA with C26U, A28G, U29G, U30C, A31U
# DNA 1: CAATCTGAATTCCGGTCTCCC
# DNA 2: TGGTGGCTACGACGGGATT
# B15: GGGCAUA (DNA:RNA)
# RNA: B2 RNA with A25G, C26G, U27G, A28C, U29A
# DNA 1: CAATCTGAATTCCGGTCTCCC
# DNA 2: TGGTGGCTACGACGGGATT
# B16: AUCCUCG (DNA:RNA)
# RNA: B2 RNA with C26U, U27C, A28C, U30C, A31G
# DNA 1: CAATCTGAATTCCGGTCTCCC
# DNA 2: TGGTGGCTACGACGGGATT
# B17: UUACCCA (DNA:RNA)
# RNA: B1 RNA with C25U, G27A, A30C, U31A
# DNA 1: CAATCTGAATTCCGGTCTCCC
# DNA 2: TGGTGGCTACGACGGGATT
# B18: GGCCGAU (DNA:RNA)
# RNA: B1 RNA with C25G, U26G, G27C, C29G
# DNA 1: CAATCTGAATTCCGGTCTCCC
# DNA 2: TGGTGGCTACGACGGGATT
# B19: AAAUGGC (DNA:RNA)
# RNA: B2 RNA with C26A, U27A, A28U, U29G, U30G, A31C
# DNA 1: CAATCTGAATTCCGGTCTCCC
# DNA 2: TGGTGGCTACGACGGGATT
# B20: GUUCUAU (DNA:RNA)
# RNA: B1 RNA with C25G, G27U, C29U
# DNA 1: CAATCTGAATTCCGGTCTCCC
# DNA 2: TGGTGGCTACGACGGGATT
# Molecular target: T1, RBFOX1 RRM RbFoxmut (Fox-RRM*)
# Assay: EMSA; HiTS-Eq, 1 nM pool, 10 min; buffer printed only for the single-RNA assays: 10 mM Tris pH 7.5, 150 mM NaCl, 3.4 mM EDTA, 0.001% NP-40, 30 C
# Conditions: tags: His6 N-terminal (pET28a); label: 5' 32P
# Method in brief: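 These values rest on relative association constants, computed from read-count changes of each RNA species versus the control reaction and normalised to the cognate motif. Reads came from free RNA recovered by 8% native PAGE after purified RbFox RRM (wild type or mutant) at increasing concentrations was equilibrated for 10 min in 50 µL with 1 nM of a 5′-radiolabelled pool with 7 randomized nucleotides and DNA-annealed flanks.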
row,Binder,binding signal
1,B1,0.0969 KA relative to UGCAUGU
2,B2,0.133 KA relative to UGCAUGU
3,B3,0.118 KA relative to UGCAUGU
4,B4,0.0691 KA relative to UGCAUGU
5,B5,0.0654 KA relative to UGCAUGU
6,B6,0.0966 KA relative to UGCAUGU
7,B7,0.11 KA relative to UGCAUGU
8,B8,0.256 KA relative to UGCAUGU
9,B9,0.109 KA relative to UGCAUGU
10,B10,0.0581 KA relative to UGCAUGU
11,B11,0.0953 KA relative to UGCAUGU
12,B12,0.116 KA relative to UGCAUGU
13,B13,0.0432 KA relative to UGCAUGU
14,B14,0.133 KA relative to UGCAUGU
15,B15,0.134 KA relative to UGCAUGU
16,B16,0.127 KA relative to UGCAUGU
17,B17,0.112 KA relative to UGCAUGU
18,B18,0.0763 KA relative to UGCAUGU
19,B19,0.108 KA relative to UGCAUGU
20,B20,0.122 KA relative to UGCAUGU
